# The campaign covered roughly 310,000 compounds. About 14,000 (4.5%) showed an effect of 50% or more. Effects have a minus sign here. This is one part of the list.
# Target: human ether-à-go-go-related gene (hERG) potassium channel (human, UniProt Q12809)
# Experiment: primary screen, population patch clamp on CHO cells stably expressing hERG
# 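Further: peak tail current of the secondary pulse compared with the same well before compound.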
# Chain of human ether-à-go-go-related gene (hERG) potassium channel (Q12809 whole entry, looked up): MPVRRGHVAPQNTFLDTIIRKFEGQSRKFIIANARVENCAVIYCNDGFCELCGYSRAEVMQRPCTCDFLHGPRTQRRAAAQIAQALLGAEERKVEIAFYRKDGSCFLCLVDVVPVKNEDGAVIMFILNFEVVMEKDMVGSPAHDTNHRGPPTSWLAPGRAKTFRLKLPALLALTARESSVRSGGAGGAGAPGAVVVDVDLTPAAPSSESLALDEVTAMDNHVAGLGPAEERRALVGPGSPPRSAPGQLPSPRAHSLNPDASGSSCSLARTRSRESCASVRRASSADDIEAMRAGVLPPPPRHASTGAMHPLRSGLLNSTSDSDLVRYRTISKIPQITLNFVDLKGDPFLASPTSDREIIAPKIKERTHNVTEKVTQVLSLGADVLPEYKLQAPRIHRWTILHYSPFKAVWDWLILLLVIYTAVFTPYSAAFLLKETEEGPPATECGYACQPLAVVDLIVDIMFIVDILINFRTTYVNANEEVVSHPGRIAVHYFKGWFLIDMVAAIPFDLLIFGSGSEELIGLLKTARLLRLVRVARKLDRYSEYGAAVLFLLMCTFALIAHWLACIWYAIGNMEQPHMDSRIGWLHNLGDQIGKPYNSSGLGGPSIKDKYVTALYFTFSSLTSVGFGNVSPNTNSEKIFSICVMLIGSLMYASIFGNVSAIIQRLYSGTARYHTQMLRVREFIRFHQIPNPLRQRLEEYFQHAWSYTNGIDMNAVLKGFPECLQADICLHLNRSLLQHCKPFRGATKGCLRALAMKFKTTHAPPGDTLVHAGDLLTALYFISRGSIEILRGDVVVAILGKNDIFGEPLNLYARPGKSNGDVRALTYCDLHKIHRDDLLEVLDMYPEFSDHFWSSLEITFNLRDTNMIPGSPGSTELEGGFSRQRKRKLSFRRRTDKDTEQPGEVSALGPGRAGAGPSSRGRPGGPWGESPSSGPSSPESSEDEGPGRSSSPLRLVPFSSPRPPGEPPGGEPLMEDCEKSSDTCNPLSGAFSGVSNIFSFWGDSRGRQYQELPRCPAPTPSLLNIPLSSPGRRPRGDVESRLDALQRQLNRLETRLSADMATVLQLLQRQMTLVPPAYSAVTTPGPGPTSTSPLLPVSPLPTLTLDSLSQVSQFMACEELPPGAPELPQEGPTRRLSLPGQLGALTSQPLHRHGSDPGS
row,SMILES,"hERG current change (%, negative = inhibition) at 10uM [%]"
1,CC(=O)Nc1ccc(SCC(=O)NCCc2ccc(F)cc2)cc1,0.827
2,COc1ccc(-c2csc(N(CC(C)C)C(=O)c3ccco3)n2)cc1,23.5
3,Cc1cc(C)n2c(SCc3nnc(-c4cccs4)o3)nnc2n1,9.28
4,CC(C)(C)NC(=O)NC(=O)CSc1ncn[nH]1,19.4
5,Cc1nc(NC(=O)c2ccc([N+](=O)[O-])cc2Cl)sc1C(=O)N(C)C,3.87
6,O=C(N/C(=C\c1ccccc1)C(=O)N1CCOCC1)c1ccc(Br)o1,3.18
7,C/C=C\C(=O)Nc1cccc(C2=NOC3(C2)C[C@H](C(N)=O)N(C(=O)Cc2ccc([N+](=O)[O-])cc2)C3)c1 (stereo partly drawn),-6.5
8,Clc1ccc(Cn2ncc3c(NCc4ccccc4)ncnc32)c(Cl)c1,25.3
9,COCCN(C(=O)COC(=O)/C(=C/c1ccccc1)NC(C)=O)c1c(N)n(Cc2ccccc2)c(=O)[nH]c1=O,9.15
10,CC1(C)CC(=O)c2cnc(N3CCN(c4ccccc4)CC3)nc2C1,2.77
11,CCOc1ccc(-c2cc(CCCC(=O)NCCc3ccc(OC)c(OC)c3OC)no2)cc1,4.4
12,O=C(COC(=O)c1cc(-c2ccco2)nc2ccccc12)NCc1ccc2c(c1)OCO2,8.16
13,CCc1ccccc1NS(=O)(=O)c1ccc2[nH]cc(C(=O)NC3CCCC3)c(=O)c2c1,-8.7
14,Cn1nc(-c2ccc(Cl)cc2)cc1NC(=O)CCCC(=O)O,12
15,O=C(NCc1ccc2c(c1)OCO2)C1CC(c2ccccc2O)=NO1 (stereo not drawn),3.93
16,Cc1ccc(-c2nnn(CC(=O)Nc3ccc4nn(-c5ccccc5)nc4c3)n2)o1,0.982
17,O=C(Cn1nnc(-c2cccs2)n1)NNC(=O)c1ccccc1Cl,-2.69
18,COc1ccc(NC(=O)c2[nH]c(C)c(C(C)=O)c2C)cc1,29
19,CCCN(C(=O)CSCc1c(C)noc1C)c1c(N)n(Cc2ccccc2)c(=O)[nH]c1=O,7.94
20,COc1cccc(/C=C2/SC(=S)N(CC(=O)NNC(=O)c3ccccc3OC)C2=O)c1,-0.389
21,COC(=O)N/N=C/c1ccccc1,13.5
22,Cc1ccc(OCC(=O)Nc2nnc(-c3ccco3)s2)cc1,4.41

row,SMILES,"hERG current change (%, negative = inhibition) at 10uM [%]"
1,Cc1ccc(Cn2ccc(=O)c(Cc3c(Cl)cccc3Cl)c2C)cc1,-20.2
2,COc1ccc(NC(=S)NCCc2ccc(Cl)cc2)c(OC)c1,-17.1
3,CCN1CCN(CCC(=O)Nc2ccc(C)cc2)CC1.Cl,-8.34
4,CN(C)/C=C/C(=O)c1ccc(Br)cc1,-15.7
5,CNC(=O)CN(c1cc(C)ccc1OC)S(=O)(=O)c1ccc(C)cc1,-0.703
6,O=C1CCCC2(O)C1C(c1cccc(Br)c1)NC(=O)N2Cc1ccccc1 (stereo not drawn),12.3
7,O=C(O)/C=C/c1ccc(OCCCF)cc1,20.3
8,O=C(O)CCN1C(=O)C(=C2CCCCCC2)SC1=S,0.436
9,CCOc1ccccc1Nc1nnc(SCc2ccc(C(=O)OC)o2)s1,-36.2
10,COc1cccc(C2c3[nH]c4ccccc4c3C[C@H]3C(=O)N(C4CCN(Cc5ccccc5)CC4)CC(=O)N23)c1 (stereo partly drawn),-49
11,O=C(CCC(=O)N/N=C/c1c[nH]c2ccccc12)NCc1ccccc1,17.2
12,O=C(Nc1ccc(F)cc1)c1cc2c(s1)CCCC2,5.88
13,O=C(Cn1cc([N+](=O)[O-])ccc1=O)NCC1COc2ccccc2O1 (stereo not drawn),-3.82
14,CC(=O)c1cccc(NC(=O)N[C@@H](CC(C)C)C(=O)O)c1,-2.5
15,Fc1ccc(-c2csc(/C=C/c3ccc4c(c3)OCO4)n2)cc1,13.2
16,O=C(CSc1ncn[nH]1)c1ccccc1,18.6
17,C/C(=N\Nc1cccc2cccnc12)c1ccc(N)cc1,8.11
18,COc1ccc2[nH]cc(CCNC(=O)c3ccccc3Cl)c2c1,10.7
19,O=C(Cn1cc(C(F)(F)F)ccc1=O)N/N=C/c1ccc(Cl)c(Cl)c1,-15.4
20,CN(C)C(=O)c1ccc(NC(=O)c2cccc(S(=O)(=O)N3CCCCCC3)c2)cc1,-18.2
21,CCN(CC)CCOc1nc(C)nc2c1oc1ccccc12.Cl,-64.6
22,COc1ccc(C=NC(CO)C(O)c2ccc([N+](=O)[O-])cc2)cc1 (stereo not drawn),18.2

row,SMILES,"hERG current change (%, negative = inhibition) at 10uM [%]"
1,Cc1cccnc1NC(=O)NC(=O)c1ccc(C(C)(C)C)s1,-14.2
2,Cc1ccc(Cl)cc1N1CCN(Cc2nc3c(c(=O)[nH]c(=O)n3C)n2Cc2ccccc2F)CC1,0.179
3,Cc1cc(NCc2ccco2)n2c(nc3ccccc32)c1C#N,-16.1
4,CCN(CC)S(=O)(=O)c1cc(C(=O)N2CCc3ccccc32)ccc1Cl,-16
5,CN(C=[N+](C)C)c1cccc2c1C(=O)c1ccccc1C2=O.[Cl-],-43
6,Cc1ccc(-c2nc3c(c(=O)c4ccccc4n3C)c(=O)n2Cc2ccco2)cc1,2.18
7,O=S(=O)(c1cccc(C(F)(F)F)c1)N1CCC(CO)(CCCc2ccccc2)CC1,-6.59
8,N#Cc1ccccc1S(=O)(=O)N1CCN(C(=O)c2cc(-c3ccccc3)nn2-c2ccccc2)CC1,14.4
9,COC(c1ccccc1)c1nnc(CCC(=O)NCc2ccc3ncccc3c2)o1 (stereo not drawn),-43.3
10,Cc1ccc(S(=O)(=O)c2nnn3c2nc(NCCCN2CCCC2=O)c2ccccc23)cc1C,-12.7
11,CC1(C)C(=O)OC(c2ccco2)C(C)(C)C1=O (stereo not drawn),-3.15
12,CCOC(=O)CC(=O)CSc1nc2ccccc2c(=O)n1-c1ccc(C(=O)NCCOC)cc1,0.133
13,CCN(c1ccccc1)S(=O)(=O)c1ccc(Cl)c(NC(=O)COC(=O)c2cc(O)c3ccccc3c2O)c1,18.7
14,Cc1cc(NC(=O)Cn2cc([N+](=O)[O-])cn2)no1,14.2
15,COc1cc(C(=O)NC(=S)NCc2ccco2)cc(OC)c1OC,1.74
16,COc1ccc(CNC(=O)c2cnccn2)cc1,-2.48
17,CCOc1cc(C2C(C#N)=C(N)OC3=C2C(=O)CC(C)(C)C3)cc([N+](=O)[O-])c1O (stereo not drawn),-25.2
18,CC(=O)NC(Cc1ccc(F)c(F)c1)C(=O)NC1CCN(c2nnnn2-c2ccccc2)CC1 (stereo not drawn),-54.6
19,CC(C)n1c(-c2ccncc2)n[nH]c1=S,17.7
20,CC1CN(C(=O)COC(=O)c2ccc(N)c([N+](=O)[O-])c2)CC(C)O1 (stereo not drawn),-18.6
21,O=C(CS(=O)(=O)c1ccc(F)cc1)Nc1nnc(-c2cccs2)o1,13.3
22,OCCOCCNc1ncnc2c1cnn2-c1ccccc1,9.79

row,SMILES,"hERG current change (%, negative = inhibition) at 10uM [%]"
1,COc1cccc(OC)c1C(=O)N1CCN(Cc2ccncc2)CC1,-3.9
2,COc1ccc(NC(=O)CN2C(=O)COc3ccc(S(=O)(=O)N4CCOCC4)cc32)cc1Cl,12.8
3,O=C(O)CCn1c(=O)c2ccccc2c2ccccc2c1=O,7.44
4,O=S(=O)(NCc1ccc(F)cc1)c1ccc(Br)cc1Br,-15.8
5,Cc1oc2cc3oc(=O)c(CC(=O)N[C@H](C(=O)N[C@@H](C(=O)O)c4ccccc4)C(C)C)c(C)c3cc2c1C,1.66
6,Cc1ccc(NC(=O)C(=O)NCC2CCCN2S(=O)(=O)c2cccs2)cc1C (stereo not drawn),-14.6
7,COCCNC(=O)COC(=O)CSCc1nc2ccccc2s1,-4.1
8,COC(=O)CC1COc2ccccc2N1C(=O)c1cc(OC)c(OC)c(OC)c1 (stereo not drawn),12.9
9,Cc1ccc(NS(=O)(=O)c2ccc(OCC(=O)NCc3cccnc3)cc2)cc1,-12.2
10,O=C(O)C1CC(c2ccccc2F)=NO1 (stereo not drawn),7.89
11,CC1(C)Cc2c(ccc3ccccc23)/C(=C/C#N)N1,25.5
12,O=C(Nc1ccccc1O)c1ccc2c(c1)C(=O)N(N1C(=O)c3ccccc3C1=O)C2=O,8.54
13,c1ccc(-c2cc(-c3ccccc3)[nH]n2)cc1,12.3
14,CCSc1nc2ccccc2n1CC(=O)O,22.6
15,CC(=O)n1c(=O)c2ccccc2c(=O)n1-c1ccccc1,3.89
16,O=C1NC2(Nc3ccccc31)C(=O)Nc1ccc(Br)cc12 (stereo not drawn),3.15
17,CCOc1ccc(C(CC(=O)O)NC(=O)C2c3ccccc3Oc3ccccc32)cc1 (stereo not drawn),7.42
18,CN(C)C(=O)CC12CC3CC(C1)CC(CC(=O)N(C)C)(C3)C2,-6.85
19,CCCCCCC(=O)NC(Nc1ccc(S(N)(=O)=O)cc1)C(Cl)(Cl)Cl (stereo not drawn),-0.328
20,C/C=C/c1ccc(OCc2cc(=O)n3cc(C)ccc3n2)c(OC)c1,-26.8
21,Cc1ccc(C(=O)N/C(N)=N/c2nc3ccccc3o2)cc1,-2.82

# Source: paper PMC4336329 (PLoS ONE, 2015)
